The chains are these.
B1: LINE1-mini (parent)
chain: GGCAGAGCUCAACACAGCGUGGCAAAGUGGCUGUGGCUAGACUGCC

Read counts are not given, so values of variants with three or more changes are uncertain.

In this data set the parent is B1. Description: self-cleavage, relative activity (ratio to wild type); higher = more cleavage; in vitro, sequencing; the parent is a self-cleaving ribozyme.
On to GACAGAGCUCAACACAGCGUGGGAAAGUGGCUGUGGCUAGACUGGC [G2A C23G C45G], for which the self-cleavage turned out to be 2.92.

For GACAGAGCUCAACACAGCGUGGCAAAGUGGUUGUGGCUGGACUGCC [G2A C31U A39G], the self-cleavage worked out at 0.11. Take GACAGAGCUUAACACAGCGUACCGAAGUGGCUGUGGCUAGACUGCC [G2A C10U G21A G22C A24G]: the self-cleavage amounted to 1.13.

Turning to GACAGAGCUCAACACAGCGUGGCAAAGUGGCUGUGGCUAGAAGGCC [G2A C42A U43G], the self-cleavage worked out at 0.27. Consider GACAGAGCUAAACACAGCGCGGCAAAGUGGCUGUGGCUAGAGUGCC [G2A C10A U20C C42G], for which the self-cleavage came out at 0.02. For GACAAAGCUCAACACAGCGUGGCAAAGUGGCUGUGGCUAGACUUCC [G2A G5A G44U], the self-cleavage came to 0.26. As for GACAGAGCUCAACACAGCGUGGUAAAGUGGCAGUGGCUAGACUGCC [G2A C23U U32A], the figure is 0.49. Take GACAAAGCUCCACACAGAGUGGCAAAGUGGCUGUGGCUAGACUGCC [G2A G5A A11C C18A]: the self-cleavage is 0.05. As for GACAGAGCUGAACACAGCGUGGCAAAGUGGCUGUGGCUAGACUGCU [G2A C10G C46U], the figure is 0.04; as for GACAUAGCUAAACACAGCGUGGCAAAGUGGCUGUGGCUAGACUGCC [G2A G5U C10A], 0.05.

As for GACAGAGCUCAACACAGAGUGGCAAAGUGGCUGUGGUUAGACUGCU [G2A C18A C37U C46U], the self-cleavage was determined as 0.05. GACAGAGCUCAACACAGAGUCGCAAAGUGGGUGUGGCUAGACUGCA [G2A C18A G21C C31G C46A]: the self-cleavage is 0.06. GACAGAGCUCAACACAGCGUGGAAAAGUAACUGUGGCUAGACUACC [G2A C23A G29A G30A G44A]: the self-cleavage came to 0.64. On to GACAGAGCUCAACAAAGCGUCGCAAAGUGGCUGUGGCUAUACUGCC [G2A C15A G21C G40U], for which the self-cleavage is 0.13. Take GACAGAGCUCAACACAGGGUGGUAAAAUGGCUGUGGAUAGACUGCC [G2A C18G C23U G27A C37A]: the self-cleavage was determined as 1.43. As for GACAGAGCUCAACAUAGCGUGGCAAAGUGUCUGUGGCUAGACUACU [G2A C15U G30U G44A C46U], the figure is 0.11; as for GACAGAGCUCAACACAACGUGGCAAAGUGUCUGUAGCUAGACUGCC [G2A G17A G30U G35A], 0.09. Regarding GACAGAGCUAAACACAGCGUGGCAAAUUGGCUGUGGCUAGACUGCC [G2A C10A G27U], the self-cleavage stood at 0.06. As for GACAUAGCUCAACACAGCGUGGCACAGUGGCUCUGGCUAGACUGUC [G2A G5U A25C G33C C45U], the figure is 0.1; as for GACACAGCUCAACACAGCGUGGCAAAGUGGCUGUGGGUAGACUGCC [G2A G5C C37G], 0.04; as for GACAGAGCUGAACACAGCAUGGCAAAGUGGCUGUGGCUAGACUGCC [G2A C10G G19A], 0.06. Regarding GACAGAGCUAAACACAGCGUGGCAAAGUGCCUGUGGCUAGACUGCA [G2A C10A G30C C46A], the self-cleavage turned out to be 0.05. Consider GACAGAGCUGAACACAGCGUGGCAAAGUGGCUGUGGCUAGAUUUCC [G2A C10G C42U G44U], for which the self-cleavage turned out to be 0.02.

Take GACAGACCUCAACACAGCGUGGCGAACUGGCUGUGGCUACAAUGCC [G2A G7C A24G G27C G40C C42A]: the self-cleavage stood at 0.18.

For the variant GACACAGCUCAACACAGCGUGGCAAAAUGACUGAGGCUAGACUGCC [G2A G5C G27A G30A U34A], the self-cleavage came out at 0.13. For the variant GACAGAGCUCAACAUCGCGUGGCAAAGUGGCUGUGGCUAGAUUGCC [G2A C15U A16C C42U], the self-cleavage turned out to be 0.06.

Take GACAGAGCUCAACAGAGCGUGGCAAACUGGCUGUGGCUAGACUGCC [G2A C15G G27C]: the self-cleavage was 0.03. For GACAGAGCUCAAUACAGCGUGGCUAAGUGGCUGUGGCUAGACUGCC [G2A C13U A24U], the self-cleavage is 0.15. For GACAGAGCUCAACACAGCGUGGCAAAGUGGCUGUGGGUAGACUGUC [G2A C37G C45U], the self-cleavage was 0.05. As to GACAGAGCUCAACACAGCGUGGUAAAGUGGCUCUGGCUAGACUGCC [G2A C23U G33C], the self-cleavage was found to be 0.05.

As for GACAGAGCUCAAAACAGCGUGGCAACGUGGCUGUGGCUAGACUGCC [G2A C13A A26C], the self-cleavage turned out to be 0.19. For the variant GACAGAGCUCAACACAGAGUGGCAAAGUGGCUGUGGCCAGACUGCC [G2A C18A U38C], the self-cleavage turned out to be 0.07. As for GACAGAUCUCAACAGAGCGUGGCAAAGUGGCUGUGGCUAGACUGCC [G2A G7U C15G], the self-cleavage was determined as 0.22. As to GACAGAGCUAAACACAGCGAGGUAAAGUGGCUGUGGCUAGACUGUC [G2A C10A U20A C23U C45U], the self-cleavage was 0.1. With GACAGAGCUCAACACAGGGCGGCAAAGUGGCCGCGGCUAGACUGCC [G2A C18G U20C U32C U34C], the self-cleavage was 0.04. As for GACAGAGCUCAACACAGCGUGGCAAAGUGGCUGUGGUAAGACUGCC [G2A C37U U38A], the self-cleavage was found to be 0.2. For the variant GACACAGCUCAACACAGCGUGGCAAUGUGGUUGCGGCUAGAUUGCC [G2A G5C A26U C31U U34C C42U], the self-cleavage stood at 0.03.

As for GACAGACCUCAACACAGCUUGGCAAAGUGGCUGUAGCUAGACUGCC [G2A G7C G19U G35A], the self-cleavage came to 0.39.

On to GACACAGCUCCACAAAGCGUGGCAAUGUGGCUGUGGCUAGACUGCC [G2A G5C A11C C15A A26U], for which the self-cleavage was determined as 0.02. Consider GACAGAGCUCAACACAGCGUGGCAAAGUGGUUGUGGCUAAACUGCC [G2A C31U G40A], for which the self-cleavage amounted to 0.04. As for GACAAAAAUCGACACAGCGUGGCAAAGUGGCUGUGGCUAGUCUGCC [G2A G5A G7A C8A A11G A41U], the figure is 0.11; as for GACAGAGCUCAACAAAGCGUGGCAUAGUGGCUGUGGCUAGACUGCC [G2A C15A A25U], 0.11.

With GACAGAGCUCAAUACAGCGUGGCAAAGUGGCUGUGUCCAGACUGCC [G2A C13U G36U U38C], the self-cleavage came to 0.14. With GACAGAGCUGAACACAGCGUGGCAAAGUGGCUGUGCCUAGACUGCC [G2A C10G G36C], the self-cleavage is 0.05.

Take GACAGAGCUCAACAGAGCGUGGCAAAGUGGCUGUGGCUCGACUGGC [G2A C15G A39C C45G]: the self-cleavage amounted to 0.03.

In the case of GACAGAGCUCAACACAGGGGGGCAAAGUGGCUGUGGCAAGACUGCC [G2A C18G U20G U38A], the self-cleavage is 0.03. As for GACAGAGCUCAACAAAGCGUGGCAAAGUGGCUGUGGUAAUACUUCC [G2A C15A C37U U38A G40U G44U], the figure is 0.19; as for GACAGAGCUCAACAGAGCGUGGCAAAGUGGCUGUGGCUACACUGCC [G2A C15G G40C], 0.03; as for GACAAAGCUCAACACAGCGUGGCAAAGUGGAUGUGGCUAGACUGCC [G2A G5A C31A], 0.18.

Turning to GACAGAGCUCAAAACAGCGUGGCCAAGUGGCUGUGGCCAGACUGCC [G2A C13A A24C U38C], the self-cleavage is 0.27.

For GACAUAGCUCAACACAGCGUGGCAAUGUGGCUGUGGCUAGAUUGCC [G2A G5U A26U C42U], the self-cleavage was 0.07. As for GACAGAGCUCAACACAGAGUGGCAAAGUGGUUGUCGCUAGACUGCC [G2A C18A C31U G35C], the self-cleavage was 0.04. As for GACAGAGCUGAACACCGCGUGGCAAAGUGGCUGUGGUUAGACUCCC [G2A C10G A16C C37U G44C], the figure is 0.02. As to GACAGAGCUCAAGACAGCGAGGCGAAGUGGCUGUCGCAAGACUGCC [G2A C13G U20A A24G G35C U38A], the self-cleavage was 0.08.

Take GACAAAGCGCAACACAGCGUGGCAGAGUGGCUGUGGCUAGACUGCC [G2A G5A U9G A25G]: the self-cleavage was found to be 0.26. On to GACAGAGCUUAACACAGCGUGGCAAAGUGGCUGUGGCUAUACUGCC [G2A C10U G40U], for which the self-cleavage stood at 0.02.

(Values after the RNAGym collection of RNA variant scans (doi:10.7554/elife.90254).)
